Assay results: PubChem BioAssay AID1508623 (National Center for Advancing Translational Sciences (NCATS), 2021)
The whole screen tested about 48,000 compounds, of which about 450 (0.94%) were called active. Inconclusive results, whose numbers are uncertain, are shown with a selection of clear calls. Calls follow the shape of the dose curve; as a rule, active = well fitted inhibition curve with a large enough effect; inconclusive = small, poorly fitted or top-dose-only effect; inactive = no such curve, though single readings can be large or run the other way. A potency beside an inconclusive call is a rough fit, not a confirmed value.

test: Primary qHTS for Identification of Small Molecule Inhibitors of Huntingtin Promoter Activity; details: HEK293 HTT promoter firefly luciferase reporter (activity 0% = vehicle and -100% = no light), 24 h; series mostly up to 57.5 µM; also: nearly all actives have a fitted effect of over 50% in size
Outline: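 Quantitative HTS used concentration series of up to 57.5 uM final on HEK293 luciferase reporter cells, 24 h at 37 degrees C. Readout was Dual-Glo firefly luminescence.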
Potency is read from the fitted curve at half-maximal effect; tags tell the direction and shape of the fitted curve.

| Structure (SMILES) | Potency |
| --- | --- |
| COCCCNC(=O)Cn1c(=O)n(Cc2ccc(C(=O)NCc3ccc(C)cc3)cc2)c(=O)c2ccccc21 | inactive |
| COC(=O)c1ccc(NC(=O)CSc2nc3ccc(OC)cc3[nH]2)cc1 | inactive |
| Cc1ccc(NC(=O)CSc2nc(C)c(Cc3ccccc3)c(=O)[nH]2)cc1 | inactive |
| CCc1ccc(NC(=O)c2cc(S(=O)(=O)NC3CCCC3)ccc2F)cc1 | inconclusive: 31.6 µM [inhibitor, partial curve, poor fit] |
| COc1cc(OC)c(NC(=O)c2nnn(Cc3ccc(C)cc3)c2N)cc1Cl | inconclusive: 25.1 µM [inhibitor, partial curve, poor fit] |
| O=C(Cn1ncc2c3ccccc3n(Cc3ccc(Cl)cc3)c2c1=O)N1CCCCCC1 | inconclusive: 25.1 µM [inhibitor, partial curve, poor fit] |
| Cc1ccccc1Cn1cc(CCC(=O)NC(C)c2ccccc2)c2ccccc21 (stereo not given) | inconclusive: 39.8 µM [inhibitor, single point] |
| Cc1ccc(S(=O)(=O)N(CC(=O)Nc2ccc(C(C)C)cc2)Cc2ccccc2)cc1 | inconclusive: 35.5 µM [inhibitor, partial curve, poor fit] |
| O=C(Nc1ccc2c(c1)CCCN2C(=O)c1cccs1)c1cccc(C(F)(F)F)c1 | inconclusive: 14.1 µM [inhibitor, partial curve] |
| O=C(Nc1ccccc1F)c1nc(S(=O)(=O)Cc2ccccc2F)ncc1Cl | inconclusive: 39.8 µM [inhibitor, single point] |
| Clc1cccc(-n2ncc3c(NC4CCCCC4)ncnc32)c1 | inactive |
| CC(C)(C)OC(=O)N1CCC(c2c(C(=O)NCCN3CCC(Cc4ccccc4)CC3)cnn2-c2cccc(Cl)c2)CC1 | inconclusive: 22.4 µM [inhibitor, single point] |
| Cc1cccc(N2CCN(C(=O)c3cc(S(=O)(=O)N4CCC(C)CC4)cn3C)CC2)c1C | inconclusive: 25.1 µM [inhibitor, single point] |
| CCCNC(=O)c1ccc2c(c1)N=C(C)c1c(C)ccc(C)c1S2 | inconclusive: 0.251 µM [inhibitor, full curve, poor fit] |
| O=C(NCc1ccc(Cl)cc1)C(=O)NCC(c1cccs1)S(=O)(=O)c1ccc(Cl)cc1 (stereo not given) | inconclusive: 28.2 µM [inhibitor, single point] |
| COc1cccc(CC(=O)Nc2ccc3nc(N4CCC(C)CC4)cc(C)c3c2)c1 | inconclusive: 31.6 µM [inhibitor, single point] |
| CCOc1cc(C(=O)Nc2ccc(Cl)c(-c3nc4ccccc4[nH]3)c2)cc(OCC)c1OCC | inconclusive: 21.7 µM [inhibitor, partial curve] |
| Cc1ccc(C(=O)Nc2ccc(Br)cc2)cc1S(=O)(=O)N1CCOCC1 | active: 20 µM |
| COc1ccccc1C(=O)Nc1ccc2nc(N3CCC(C)CC3)cc(C)c2c1 | inconclusive: 39.8 µM [inhibitor, single point] |
| Cc1cc(NS(=O)(=O)c2ccc3nc(-c4ccccc4)[nH]c3c2)ccc1Br | inconclusive: 31.6 µM [inhibitor, partial curve, poor fit] |

| Structure (SMILES) | Potency |
| --- | --- |
| COc1ccccc1-c1noc(CSc2nnc(Cc3ccccc3)n2-c2ccc(C)c(C)c2)n1 | inconclusive: 31.6 µM [inhibitor, single point] |
| Cc1nc(N)nc(N)c1-c1ccc(Cl)c(Cl)c1 | inconclusive: 6.31 µM [inhibitor, full curve] |
| CCC(Cc1ccccc1)NC(=O)c1oc(=O)c2ccccc2c1-c1ccccc1 (stereo not given) | inconclusive: 31.6 µM [inhibitor, single point] |
| Cc1cccc(C)c1OCCCCn1c(C2CC(=O)N(c3ccc(F)cc3)C2)nc2ccccc21 (stereo not given) | inconclusive: 39.8 µM [inhibitor, partial curve, poor fit] |
| O=S(=O)(NCC(c1ccco1)N1CCN(c2ccc(F)cc2)CC1)c1ccccc1 (stereo not given) | inconclusive: 17.8 µM [inhibitor, single point] |
| CCCCN(Cc1ccccc1)S(=O)(=O)c1ccc2c(c1)CC(C)N2C(=O)CC (stereo not given) | inconclusive: 39.8 µM [inhibitor, single point] |
| CCOc1ccc(CNC(=O)c2ccc(NC(=O)c3nsc4ccccc34)cc2)cc1 | inconclusive: 22.4 µM [inhibitor, single point] |
| Oc1ccc(Cl)cc1Sc1cc(Cl)ccc1O | inconclusive: 25.1 µM [inhibitor, single point] |
| COc1ccc(C2CC(=O)c3c([nH]c(C(=O)OC4CCC(C)CC4)c3C)C2)cc1OC (stereo not given) | inactive |
| Cc1ccccc1C(C(=O)NC1CCCCC1)N(C(=O)Cn1ccnc1C)c1cccc(F)c1 (stereo not given) | inactive |
| CCc1cccc2sc(N3CCN(C(=O)C4CC4)CC3)nc12 | inconclusive: 39.8 µM [inhibitor, single point] |
| Cc1cc(C)cc(C(=O)N2CC(=O)Nc3ccc(C)cc3C2c2ccccc2)c1 (stereo not given) | inconclusive: 28.2 µM [inhibitor, single point] |
| Cc1cc(C)c(S(=O)(=O)Nc2ccc3oc(C)c(C(=O)OC(C)C)c3c2)cc1C | inconclusive: 31.6 µM [inhibitor, single point] |
| Cc1ccc(CSc2c(C)cnc3c2c(=O)n(C)c(=O)n3C)cc1 | inconclusive: 22.4 µM [inhibitor, partial curve, poor fit] |
| COc1cccc2sc(NC(=O)c3ccc4c(c3)OCCO4)nc12 | inactive |
| CCc1nc2ccc(C(=O)N3CCN(c4ccccc4F)CC3)cc2nc1CC | inconclusive: 39.8 µM [inhibitor, single point] |
| O=C1CCCc2cc(S(=O)(=O)NCC3CCC(C(=O)Nc4ccc(Cl)cc4)CC3)ccc2N1 (stereo not given) | inconclusive: 25.1 µM [inhibitor, partial curve] |
| CCCCCCOc1ccc(/C=C/C(=O)Nc2sc3c(c2C(=O)OC)CCC3)cc1OC | inconclusive: 39.8 µM [inhibitor, single point] |
| COc1ccc(NC(=O)Cn2c(=O)oc3ccccc32)cc1 | inactive |
| CCC(C)NC(=O)c1cc2cc(S(=O)(=O)N3CCCCC3)ccc2n1C (stereo not given) | inconclusive: 14.1 µM [inhibitor, partial curve, poor fit] |

| Structure (SMILES) | Potency |
| --- | --- |
| C[C@H](NC(=O)C(C#N)=Cc1cccc(Br)n1)c1ccccc1 | inconclusive: 43.2 µM [inhibitor, single point] |
| COc1cc(Cn2c(=O)oc3ccc(C)cc32)ccc1OCCC(C)C | inconclusive: 39.8 µM [inhibitor, partial curve, poor fit] |
| CC(C)(C)c1ccc(CSC2=Nc3ccccc3C3=NC(CC(=O)NCc4cccs4)C(=O)N23)cc1 (stereo not given) | inconclusive: 39.8 µM [inhibitor, single point] |
| Cc1ccc(CNS(=O)(=O)c2ccc(N3CCCCS3(=O)=O)cc2)cc1 | inconclusive: 12.6 µM [inhibitor, partial curve] |
| O=C(Nc1cc(Cl)ccc1Cl)c1cc(S(=O)(=O)NCCc2ccccc2)ccc1F | inconclusive: 31.6 µM [inhibitor, partial curve, poor fit] |
| Cc1ccc(C(=O)N(Cc2ccco2)Cc2sccc2C)cc1 | inactive |
| COc1ccc(-c2c(C#N)c(SCC(=O)Nc3cccc(Cl)c3)nc(C)c2C(=O)Nc2ccccc2)cc1OC | inconclusive: 3.98 µM [inhibitor, single point] |
| CCc1ccc(NC(=O)CCn2c(-c3ccc(OC)cc3)cc(C(C)=O)c2C)cc1 | inconclusive: 15.8 µM [inhibitor, partial curve, poor fit] |
| COc1cccc(Cc2nc3ccccc3nc2SCC(=O)NCCc2ccccc2)c1 | inconclusive: 39.8 µM [inhibitor, single point] |
| COc1ccc(C2C=C(c3ccc(F)cc3)Nc3nc(-c4ccc(Cl)cc4)nn32)cc1 (stereo not given) | inconclusive: 39.8 µM [inhibitor, partial curve, poor fit] |
| Cc1ccc(-c2nc3ccccc3[nH]2)cc1NC(=O)COc1ccccc1[N+](=O)[O-] | inconclusive: 22.4 µM [inhibitor, single point] |
| O=C(c1cnn(-c2cccc(F)c2)c1-n1cccc1)N1CCN(c2ccccc2F)CC1 | inconclusive: 28.2 µM [inhibitor, single point] |
| COc1ccc(-n2nc3c(N4CCC(C(=O)NCc5cccc(F)c5)CC4)nnc(C)c3c2C)cc1 | inconclusive: 39.8 µM [inhibitor, single point] |
| CC(=O)c1cccc(NC(=O)CN2C(=O)c3ccccc3Sc3ncccc32)c1 | inactive |
| COc1cccc(Nc2nc3cc(C)ccc3nc2NS(=O)(=O)c2ccc(Cl)cc2)c1 | inconclusive: 2 µM [inhibitor, full curve, poor fit] |
| COc1ccc(NC(=O)/C=C\C(=O)N(c2ccc(C(C)C)cc2)C(C(=O)NCc2ccco2)c2ccc(C)cc2)cc1 (stereo not given) | inconclusive: 20 µM [inhibitor, partial curve, poor fit] |
| CCOC(=O)c1cccc(NC(=O)c2ncoc2-c2ccco2)c1 | inconclusive: 39.8 µM [inhibitor, single point] |
| COc1cccc(C(=O)NCCc2csc3nc(-c4ccccc4F)nn23)c1OC | inactive |
| Cc1ccc(CNC(=O)Cn2c(SCC(=O)Nc3ccc(F)cc3)nc3ccccc32)cc1 | inconclusive: 22.4 µM [inhibitor, partial curve] |
| Cc1cc(C)c(S(=O)(=O)NCCS(=O)(=O)N2CCN(c3ccccc3)CC2)c(C)c1 | inconclusive: 39.8 µM [inhibitor, single point] |
